The list shows a part of the results.
What was measured:
Assay in all cases: glycan array binding signal (z-score within array); higher = stronger binding
Conditions in all cases: glycan notation: IUPAC condensed, linker removed
[1] = target: Neu5Ac(a2-3)Gal(b1-4)GlcNAc(b1-6)GalNAc
In short: (§1)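 The binding signal is a Z-score computed within each array and averaged over linkers. Arrays of the same protein sequence at different concentrations or buffers were also averaged together. Data originate from 3228 arrays in the Consortium for Functional Glycomics database, kept only where the protein sequence was available.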

[2] = target: Neu5Ac(a2-3)Gal(b1-4)GlcNAc(b1-6)[Gal(b1-3)]GalNAc
In short: as §1

[3] = target: Neu5Ac(a2-3)Gal(b1-4)GlcNAc(b1-6)[Neu5Ac(a2-3)Gal(b1-3)]GalNAc
In short: as §1

[4] = target: Neu5Ac(a2-3)Gal(b1-4)GlcNAc6S
In short: as §1

[5] = target: Neu5Ac(a2-3)Gal(b1-4)[Fuc(a1-3)]GlcNAc
In short: as §1

[6] = target: Neu5Ac(a2-3)Gal(b1-4)[Fuc(a1-3)]GlcNAc(b1-2)Man
In short: as §1

[7] = target: Neu5Ac(a2-3)Gal(b1-4)[Fuc(a1-3)]GlcNAc(b1-3)Gal
In short: as §1

[8] = target: Neu5Ac(a2-3)Gal(b1-4)[Fuc(a1-3)]GlcNAc(b1-3)Gal(b1-4)GlcNAc
In short: as §1

[9] = target: Neu5Ac(a2-3)Gal(b1-4)[Fuc(a1-3)]GlcNAc(b1-3)Gal(b1-4)[Fuc(a1-3)]GlcNAc(b1-3)Gal(b1-4)[Fuc(a1-3)]GlcNAc
In short: as §1

[10] = target: Neu5Ac(a2-3)Gal(b1-4)[Fuc(a1-3)]GlcNAc(b1-3)GalNAc
In short: as §1

[11] = target: Neu5Ac(a2-3)Gal(b1-4)[Fuc(a1-3)]GlcNAc(b1-6)[Gal(b1-3)]GalNAc
In short: as §1

[12] = target: Neu5Ac(a2-3)Gal(b1-4)[Fuc(a1-3)]GlcNAc(b1-6)[Neu5Ac(a2-3)Gal(b1-3)]GalNAc
In short: as §1

[13] = target: Neu5Ac(a2-3)Gal(b1-4)[Fuc(a1-3)]GlcNAc6S
In short: as §1

[14] = target: Neu5Ac(a2-3)Gal6S(b1-4)GlcNAc
In short: as §1

[15] = target: Neu5Ac(a2-3)Gal6S(b1-4)[Fuc(a1-3)]GlcNAc
In short: as §1

Neu5Ac(a2-3)GalNAc = target: Neu5Ac(a2-3)GalNAc
In short: as §1

[16] = target: Neu5Ac(a2-3)GalNAc(b1-4)GlcNAc
In short: as §1

[17] = target: Neu5Ac(a2-3)[GalNAc(b1-4)]Gal(b1-4)Glc
In short: as §1

[18] = target: Neu5Ac(a2-3)[GalNAc(b1-4)]Gal(b1-4)GlcNAc
In short: as §1

[19] = target: Neu5Ac(a2-3)[GalNAc(b1-4)]Gal(b1-4)GlcNAc(b1-3)GalNAc
In short: as §1

[20] = target: Neu5Ac(a2-3)[Neu5Ac(a2-6)]GalNAc
In short: as §1

Neu5Ac(a2-6)Gal = target: Neu5Ac(a2-6)Gal
In short: as §1

[21] = target: Neu5Ac(a2-6)Gal(b1-3)GlcNAc(b1-3)[Gal(b1-4)GlcNAc(b1-6)]Gal(b1-4)Glc
In short: as §1

Neu5Ac(a2-6)Gal(b1-4)Glc = target: Neu5Ac(a2-6)Gal(b1-4)Glc
In short: as §1

[22] = target: Neu5Ac(a2-6)Gal(b1-4)GlcNAc
In short: as §1

[23] = target: Neu5Ac(a2-6)Gal(b1-4)GlcNAc(b1-2)Man
In short: as §1

[24] = target: Neu5Ac(a2-6)Gal(b1-4)GlcNAc(b1-2)Man(a1-3)Man(b1-4)GlcNAc(b1-4)GlcNAc
In short: as §1

[25] = target: Neu5Ac(a2-6)Gal(b1-4)GlcNAc(b1-2)Man(a1-3)[Gal(b1-4)GlcNAc(b1-2)Man(a1-6)]Man(b1-4)GlcNAc(b1-4)GlcNAc
In short: as §1

[26] = target: Neu5Ac(a2-6)Gal(b1-4)GlcNAc(b1-2)Man(a1-3)[GlcNAc(b1-2)Man(a1-6)]Man(b1-4)GlcNAc(b1-4)GlcNAc
In short: as §1

[27] = target: Neu5Ac(a2-6)Gal(b1-4)GlcNAc(b1-2)Man(a1-3)[GlcNAc(b1-4)][Neu5Ac(a2-6)Gal(b1-4)GlcNAc(b1-2)Man(a1-6)]Man(b1-4)GlcNAc(b1-4)GlcNAc
In short: as §1

[28] = target: Neu5Ac(a2-6)Gal(b1-4)GlcNAc(b1-2)Man(a1-3)[Man(a1-6)]Man(b1-4)GlcNAc(b1-4)GlcNAc
In short: as §1

[29] = target: Neu5Ac(a2-6)Gal(b1-4)GlcNAc(b1-2)Man(a1-3)[Neu5Ac(a2-3)Gal(b1-4)GlcNAc(b1-2)Man(a1-6)]Man(b1-4)GlcNAc(b1-4)GlcNAc
In short: as §1

[30] = target: Neu5Ac(a2-6)Gal(b1-4)GlcNAc(b1-2)Man(a1-3)[Neu5Ac(a2-6)Gal(b1-4)GlcNAc(b1-2)Man(a1-6)]Man(b1-4)GlcNAc(b1-4)GlcNAc
In short: as §1

[31] = target: Neu5Ac(a2-6)Gal(b1-4)GlcNAc(b1-2)Man(a1-3)[Neu5Ac(a2-6)Gal(b1-4)GlcNAc(b1-2)Man(a1-6)]Man(b1-4)GlcNAc(b1-4)[Fuc(a1-6)]GlcNAc
In short: as §1

[32] = target: Neu5Ac(a2-6)Gal(b1-4)GlcNAc(b1-2)Man(a1-6)Man(b1-4)GlcNAc(b1-4)GlcNAc
In short: as §1

[33] = target: Neu5Ac(a2-6)Gal(b1-4)GlcNAc(b1-2)Man(a1-6)[Gal(b1-4)GlcNAc(b1-2)Man(a1-3)]Man(b1-4)GlcNAc(b1-4)GlcNAc
In short: as §1

[34] = target: Neu5Ac(a2-6)Gal(b1-4)GlcNAc(b1-2)Man(a1-6)[GlcNAc(b1-2)Man(a1-3)]Man(b1-4)GlcNAc(b1-4)GlcNAc
In short: as §1

[35] = target: Neu5Ac(a2-6)Gal(b1-4)GlcNAc(b1-2)Man(a1-6)[Man(a1-3)]Man(b1-4)GlcNAc(b1-4)GlcNAc
In short: as §1

[36] = target: Neu5Ac(a2-6)Gal(b1-4)GlcNAc(b1-2)[Neu5Ac(a2-6)Gal(b1-4)GlcNAc(b1-4)]Man(a1-3)[GlcNAc(b1-4)][Neu5Ac(a2-6)Gal(b1-4)GlcNAc(b1-2)[Neu5Ac(a2-6)Gal(b1-4)GlcNAc(b1-6)]Man(a1-6)]Man(b1-4)GlcNAc(b1-4)GlcNAc
In short: as §1

[37] = target: Neu5Ac(a2-6)Gal(b1-4)GlcNAc(b1-2)[Neu5Ac(a2-6)Gal(b1-4)GlcNAc(b1-4)]Man(a1-3)[GlcNAc(b1-4)][Neu5Ac(a2-6)Gal(b1-4)GlcNAc(b1-4)Man(a1-6)]Man(b1-4)GlcNAc(b1-4)GlcNAc
In short: as §1

[38] = target: Neu5Ac(a2-6)Gal(b1-4)GlcNAc(b1-2)[Neu5Ac(a2-6)Gal(b1-4)GlcNAc(b1-6)]Man(a1-6)[Neu5Ac(a2-6)Gal(b1-4)GlcNAc(b1-2)Man(a1-3)][GlcNAc(b1-4)]Man(b1-4)GlcNAc(b1-4)GlcNAc
In short: as §1

[39] = target: Neu5Ac(a2-6)Gal(b1-4)GlcNAc(b1-3)Gal(b1-3)GlcNAc
In short: as §1

[40] = target: Neu5Ac(a2-6)Gal(b1-4)GlcNAc(b1-3)Gal(b1-4)GlcNAc
In short: as §1

[41] = target: Neu5Ac(a2-6)Gal(b1-4)GlcNAc(b1-3)Gal(b1-4)GlcNAc(b1-2)Man(a1-3)[Neu5Ac(a2-6)Gal(b1-4)GlcNAc(b1-3)Gal(b1-4)GlcNAc(b1-2)Man(a1-6)]GalNAc
In short: as §1

[42] = target: Neu5Ac(a2-6)Gal(b1-4)GlcNAc(b1-3)Gal(b1-4)GlcNAc(b1-3)Gal(b1-4)GlcNAc
In short: as §1

B1: CLECb-Precomplexed (Mus musculus), P43025 (protein)
chain: MAKNGLVLCILVVSLLLDQTDGYPSRMKARKHSKRRVKAKDDDLKSQVEKLWREVNALKEMQALQTVCLRGTKVHKKCYLASEGLKHYHEANEDCISKGGTLVVPRNSDEINALRDYGKRSLPGVNDFWLGINDMVTEGKFLDVHGFAVSFLNWDRAQPSGGKRENCVLFSQSAQGKWSDEACRSSKRYICEFIIPTRTRPLEQKLISEEDLAANDILDYKDDDDKV
[1]
  glycan array binding signal (z-score): -0.192
[2]
  glycan array binding signal (z-score): 0.699
[3]
  glycan array binding signal (z-score): -0.564
[4]
  glycan array binding signal (z-score): -0.559
[5]
  glycan array binding signal (z-score): -0.551
[6]
  glycan array binding signal (z-score): -0.357
[7]
  glycan array binding signal (z-score): 1.1
[8]
  glycan array binding signal (z-score): 0.396
[9]
  glycan array binding signal (z-score): -0.141
[10]
  glycan array binding signal (z-score): 0.48
[11]
  glycan array binding signal (z-score): 0.178
[12]
  glycan array binding signal (z-score): 1.07
[13]
  glycan array binding signal (z-score): -0.203
[14]
  glycan array binding signal (z-score): -0.618
[15]
  glycan array binding signal (z-score): -0.005
Neu5Ac(a2-3)GalNAc
  glycan array binding signal (z-score): 0.032
[16]
  glycan array binding signal (z-score): -0.698
[17]
  glycan array binding signal (z-score): 0.078
[18]
  glycan array binding signal (z-score): -0.321
[19]
  glycan array binding signal (z-score): 0.271
[20]
  glycan array binding signal (z-score): 0.176
Neu5Ac(a2-6)Gal
  glycan array binding signal (z-score): -0.301
[21]
  glycan array binding signal (z-score): 0.55
Neu5Ac(a2-6)Gal(b1-4)Glc
  glycan array binding signal (z-score): -0.213
[22]
  glycan array binding signal (z-score): -0.18
[23]
  glycan array binding signal (z-score): -0.647
[24]
  glycan array binding signal (z-score): 0.007
[25]
  glycan array binding signal (z-score): -0.117
[26]
  glycan array binding signal (z-score): 0.046
[27]
  glycan array binding signal (z-score): 0.199
[28]
  glycan array binding signal (z-score): -0.151
[29]
  glycan array binding signal (z-score): -0.03
[30]
  glycan array binding signal (z-score): -0.388
[31]
  glycan array binding signal (z-score): 2.94
[32]
  glycan array binding signal (z-score): -0.084
[33]
  glycan array binding signal (z-score): 0.123
[34]
  glycan array binding signal (z-score): -0.639
[35]
  glycan array binding signal (z-score): -0.366
[36]
  glycan array binding signal (z-score): -0.528
[37]
  glycan array binding signal (z-score): -0.266
[38]
  glycan array binding signal (z-score): -0.389
[39]
  glycan array binding signal (z-score): -0.423
[40]
  glycan array binding signal (z-score): -0.301
[41]
  glycan array binding signal (z-score): -0.31
[42]
  glycan array binding signal (z-score): 0.109

Reference: the supplement of paper PMC8728848
